Consider 83 variants from the RNAGym collection of RNA variant scans (doi:10.1073/pnas.2313332121).

The labels stand for the following.
B1: TPR 5TU (parent)
chain: GGAUCUUCUCGAUCUAACAAAAAAGACAAAUCUGCCACAAAGCUUGAGAGCAUCUUCGGAUGCAGAGGCGGCAGCCUUCGGUGGCGCGAUAGCGCCAACGUUCUCAACUAUGACACGCAAAACGCGUGCUCCGUUGAAUGGAGUUUAUCAUG

This sample is rich in variants without activity.

The variants in this data set derive from B1. Put plainly: polymerase ribozyme fitness, log enrichment relative to wild type (log ratio); higher = more active; in vitro selection for triplet polymerase activity. The gist of the method: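 In triplicate, a single round of in vitro selection was run on each mutant library, PCR-built and transcribed, covering one subunit of a heterodimeric triplet polymerase ribozyme. Frozen incubation at −7 °C followed annealing with a biotinylated primer, partner subunit and triplets, and extended constructs were then gel-excised, streptavidin-captured and taken through RT-PCR. Fitness is the logarithm of genotype enrichment over wild-type enrichment, from inverse-variance-weighted replicate averages of Illumina-sequenced inputs and outputs. […] only genotypes with ≥10 input reads and ≥1 read per output were kept.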
Regarding A12U U13A C93A G94C C105U U134G, the “polymerase ribozyme fitness (log ratio)” value was no more than -4.2.

On to A12U A17U C35G G81C C87U G124C, for which the “polymerase ribozyme fitness (log ratio)” value was no more than -4.2.

Turning to U13G C43U U56G C76G C87G U90A C123G, the “polymerase ribozyme fitness (log ratio)” value is no more than -4.2.

Consider C14G A29G C93G, for which the “polymerase ribozyme fitness (log ratio)” value is no more than -4.2.

For the variant C14U A41G A49C U55G G88C A119G G126A, the “polymerase ribozyme fitness (log ratio)” value is no more than -4.2.

As to C14U A17U C76A C85G C105U U135A, the “polymerase ribozyme fitness (log ratio)” value was no more than -4.2.

With A12U C57U U90G C95U U102C A119U C129U, the “polymerase ribozyme fitness (log ratio)” value is no more than -4.2.

For the variant C14U A29U G84U A91C, the “polymerase ribozyme fitness (log ratio)” value is no more than -4.2.

With A12G G92A G94A G117U U135G G143C, the “polymerase ribozyme fitness (log ratio)” value was no more than -4.2.

Turning to U13C C18G U55A C87A, the “polymerase ribozyme fitness (log ratio)” value is no more than -4.2.

As for A12C C54U A91U A107G C131U, the “polymerase ribozyme fitness (log ratio)” value is no more than -4.2.

On to A12C C18U G50C C51U C118G, for which the “polymerase ribozyme fitness (log ratio)” value was no more than -4.2.

Regarding C14A A17U G92U A107G, the “polymerase ribozyme fitness (log ratio)” value is no more than -4.2.

With U13A A52C C69A U78A G92C C114U, the “polymerase ribozyme fitness (log ratio)” value is no more than -4.2.

As to C14G C35G A64U U82A G84A C118U, the “polymerase ribozyme fitness (log ratio)” value is no more than -4.2.

As for C14G U56A G88U G92C C116U G140U U145A, the “polymerase ribozyme fitness (log ratio)” value is no more than -4.2.

For the variant A12C A39C A40U C54U A115G A119C G136A, the “polymerase ribozyme fitness (log ratio)” value was no more than -4.2.

As to C14G U44G C75G G83U U151C, the “polymerase ribozyme fitness (log ratio)” value was no more than -4.2.

For A12G A73U C76G G141U, the “polymerase ribozyme fitness (log ratio)” value was no more than -4.2.

Consider C14A G65A C87A G140C, for which the “polymerase ribozyme fitness (log ratio)” value is no more than -4.2.

Regarding C14G C38A C96U C114A, the “polymerase ribozyme fitness (log ratio)” value was no more than -4.2.

As to A12U G46A A49G C93U U135A U145G, the “polymerase ribozyme fitness (log ratio)” value is no more than -4.2.

As to C14G A52U G88C A110G, the “polymerase ribozyme fitness (log ratio)” value is no more than -4.2.

Turning to A12G C36U A73U C76G C87G C116A C118G, the “polymerase ribozyme fitness (log ratio)” value is no more than -4.2.

As to A12C U15G C79A C99A, the “polymerase ribozyme fitness (log ratio)” value is no more than -4.2.

As to A12G A64C U78G G80A G133U U145C, the “polymerase ribozyme fitness (log ratio)” value was no more than -4.2.

For the variant A12C C32G A66G C93U C103A, the “polymerase ribozyme fitness (log ratio)” value is no more than -4.2.

Take C14G A23G U44G G83C: the “polymerase ribozyme fitness (log ratio)” value was no more than -4.2.

On to A12U C54A G71U A91G, for which the “polymerase ribozyme fitness (log ratio)” value is no more than -4.2.

In the case of A12U C14G A64G U144G, the “polymerase ribozyme fitness (log ratio)” value was no more than -4.2.

For the variant C14G C85G, the “polymerase ribozyme fitness (log ratio)” value is no more than -4.2.

In the case of C14U A17U C18U A20C A22C C27U C51G G70A C85G U102G C108A, the “polymerase ribozyme fitness (log ratio)” value was no more than -4.2.

On to A12U A39C U53C C72A A91U C125U G140U, for which the “polymerase ribozyme fitness (log ratio)” value was no more than -4.2.

For A12U C35U A41C U78G G94U A115C, the “polymerase ribozyme fitness (log ratio)” value was no more than -4.2.

As to U13G U33C C36A C93A U145C, the “polymerase ribozyme fitness (log ratio)” value is no more than -4.2.

With A12C C14A U53A U109A U111G G112A C116U A142C, the “polymerase ribozyme fitness (log ratio)” value is no more than -4.2.

For C14U A23C C85U A107G U130A, the “polymerase ribozyme fitness (log ratio)” value was no more than -4.2.

Turning to C14G A19C A23C A49C A91U A137G G141A U146C, the “polymerase ribozyme fitness (log ratio)” value is no more than -4.2.

For the variant A12U G74U G86U, the “polymerase ribozyme fitness (log ratio)” value is no more than -4.2.

With U13G A21U C32A C38A U90C A97G A110G, the “polymerase ribozyme fitness (log ratio)” value is no more than -4.2.

Take C14U C27U A28C C36A C85G: the “polymerase ribozyme fitness (log ratio)” value is no more than -4.2.

Turning to C14A A40U A52C C116A A150G, the “polymerase ribozyme fitness (log ratio)” value is no more than -4.2.

Regarding C14G G25C G50C G83U C103A G117U C118G U135C, the “polymerase ribozyme fitness (log ratio)” value was no more than -4.2.

With A12U A22C G65A C93U U109C, the “polymerase ribozyme fitness (log ratio)” value is no more than -4.2.

For U13G C32G U44A A91C C99G G133A, the “polymerase ribozyme fitness (log ratio)” value is no more than -4.2.

Regarding A12U A29U C32U A39C G67A C93A A137G, the “polymerase ribozyme fitness (log ratio)” value was no more than -4.2.

Take A12U U15C A30U U45A C69A C85G A115U: the “polymerase ribozyme fitness (log ratio)” value is no more than -4.2.

Turning to C14G G68U G86U, the “polymerase ribozyme fitness (log ratio)” value is no more than -4.2.

As for C14A G67C A73G C87A A97C G143A, the “polymerase ribozyme fitness (log ratio)” value was no more than -4.2.

For A12U G86U C96U A97U C103G, the “polymerase ribozyme fitness (log ratio)” value was no more than -4.2.

Turning to U13A A49G U53A U55A A115G, the “polymerase ribozyme fitness (log ratio)” value is no more than -4.2.

Regarding C14A U31C G42U U44A C79G C95G C105A A119C, the “polymerase ribozyme fitness (log ratio)” value is no more than -4.2.

As to C14A A41C U135C, the “polymerase ribozyme fitness (log ratio)” value is no more than -4.2.

Consider C14A G46C U55A G67A C87G G126A C132G, for which the “polymerase ribozyme fitness (log ratio)” value is no more than -4.2.

For the variant C14A A28C C51G G94C A98G A110G, the “polymerase ribozyme fitness (log ratio)” value is no more than -4.2.

For the variant C14G C27A A49G U82G, the “polymerase ribozyme fitness (log ratio)” value was no more than -4.2.

Take C14A A24U U90A C93A A107G U111G C114G G124U: the “polymerase ribozyme fitness (log ratio)” value is no more than -4.2.

In the case of C14G G86U C87A C95A U104A, the “polymerase ribozyme fitness (log ratio)” value was no more than -4.2.

Turning to A12G U55A G80A A150C, the “polymerase ribozyme fitness (log ratio)” value was no more than -4.2.

For C14G A29G U90G A98U U109C, the “polymerase ribozyme fitness (log ratio)” value was no more than -4.2.

As to U13G A22U C85U G100C C125G, the “polymerase ribozyme fitness (log ratio)” value was no more than -4.2.

For U13G A41G G42A U82C U135C G141U, the “polymerase ribozyme fitness (log ratio)” value was no more than -4.2.

U13G A66U G83U: the “polymerase ribozyme fitness (log ratio)” value is no more than -4.2.

As for U13C A39C U53A A60G C93A A98C A107G, the “polymerase ribozyme fitness (log ratio)” value is no more than -4.2.

Consider C14G A37G C43G C75G G86A C105A U146C, for which the “polymerase ribozyme fitness (log ratio)” value is no more than -4.2.

With U13G G67C C93A, the “polymerase ribozyme fitness (log ratio)” value is no more than -4.2.

As for U13G A47G A60C A73G G86C G140U U148A, the “polymerase ribozyme fitness (log ratio)” value was no more than -4.2.

Regarding C14G A40G A41G U77G C79U G84U U102G U148G, the “polymerase ribozyme fitness (log ratio)” value is no more than -4.2.

Regarding A12G C38G A91U A106G G136A A147C, the “polymerase ribozyme fitness (log ratio)” value was no more than -4.2.

Consider A12C C36A G42A G94U A150G, for which the “polymerase ribozyme fitness (log ratio)” value is no more than -4.2.

Consider C14U A37U G42C C57G A66G C85G C95A C108A G141A, for which the “polymerase ribozyme fitness (log ratio)” value was no more than -4.2.

Turning to U13A A26G A40G G67C G81A G84U C85A A106U C108U C114A G143C U145A, the “polymerase ribozyme fitness (log ratio)” value was no more than -4.2.

Consider U13G A107C U145A, for which the “polymerase ribozyme fitness (log ratio)” value is no more than -4.2.

Regarding U13A A37G C99G C108A, the “polymerase ribozyme fitness (log ratio)” value is no more than -4.2.

C14U A20U G81A G88C: the “polymerase ribozyme fitness (log ratio)” value is no more than -4.2.

As to U13G G25C A40U A73G A91C A97U U151G G152A, the “polymerase ribozyme fitness (log ratio)” value was no more than -4.2.

Regarding C14A A40G C132U A138C, the “polymerase ribozyme fitness (log ratio)” value was no more than -4.2.

Consider U13A A66G C79U C87A G92C U101G U109C U145G, for which the “polymerase ribozyme fitness (log ratio)” value is no more than -4.2.

As to U13C G48C G50U G100U A120U U134C, the “polymerase ribozyme fitness (log ratio)” value was no more than -4.2.

As to A12U U33C G34U C38U G42A C85U U90G C93A A106U C132U, the “polymerase ribozyme fitness (log ratio)” value is no more than -4.2.

In the case of A12G A21C A41U C99G A150C, the “polymerase ribozyme fitness (log ratio)” value was no more than -4.2.

Take A12U C18G A20C A37C U77C C99U: the “polymerase ribozyme fitness (log ratio)” value is no more than -4.2.

Consider C14U A20C U55A C72A U90A A106G U144C, for which the “polymerase ribozyme fitness (log ratio)” value was no more than -4.2.
